The full ranking holds about 33,000 sequences; the median of “E-score (-0.5 to 0.5)” is about -0.032, and the highest 2% start at about 0.36. The list shows a part of the results.
These sequences were tested against T1, Sko1 (UniProt Q02100) (assay: PBM E-score (8-mer binding enrichment) (E-score (-0.5 to 0.5)); higher = stronger / more preferred TF binding; most listed sequences are background and not binding sites). Conditions: protein concentration: 200 nM; construct: GST-full length.
T1 sequence: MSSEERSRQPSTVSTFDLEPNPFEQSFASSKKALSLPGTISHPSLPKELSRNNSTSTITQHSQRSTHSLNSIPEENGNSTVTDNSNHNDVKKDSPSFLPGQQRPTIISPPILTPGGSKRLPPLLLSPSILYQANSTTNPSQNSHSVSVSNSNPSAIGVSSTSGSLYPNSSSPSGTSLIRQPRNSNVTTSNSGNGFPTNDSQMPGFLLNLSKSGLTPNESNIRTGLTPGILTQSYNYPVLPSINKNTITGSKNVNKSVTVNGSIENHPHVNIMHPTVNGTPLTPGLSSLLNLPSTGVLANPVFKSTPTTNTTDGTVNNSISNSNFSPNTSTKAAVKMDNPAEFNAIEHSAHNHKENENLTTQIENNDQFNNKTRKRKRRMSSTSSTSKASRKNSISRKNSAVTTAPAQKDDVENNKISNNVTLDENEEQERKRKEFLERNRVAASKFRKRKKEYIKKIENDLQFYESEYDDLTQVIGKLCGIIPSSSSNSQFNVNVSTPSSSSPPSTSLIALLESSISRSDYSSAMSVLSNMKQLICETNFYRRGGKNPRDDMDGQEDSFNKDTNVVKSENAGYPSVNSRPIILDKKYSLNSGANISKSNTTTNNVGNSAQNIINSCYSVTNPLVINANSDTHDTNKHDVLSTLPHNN
Method in brief: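 The E-score, a modified Wilcoxon-Mann-Whitney statistic, was computed by the Universal PBM Analysis Suite for every ungapped eight-base word pooled with its reverse complement. Scans behind it were normalised with masliner after bound GST-tagged yeast transcription factors were detected with fluorescent anti-GST. The proteins, at about 100-200 nM, had been applied to universal all-10-mer Agilent arrays made double-stranded by primer extension.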

Row | Sequence | PBM E-score
1 | ACGAATGG | 0.209
2 | AATGCGCT | 0.0446
3 | CGCAACCA | 0.112
4 | CAACGCTA | -0.0907
5 | CTTTGGGC | -0.121
6 | GATGTAGA | 0.144
7 | ATTCGGAC | 0.0799
8 | GGCACCAA | -0.24
9 | ATCGGTCG | -0.0591
10 | AACGCAAC | 0.289
11 | ACTAATAT | 0.262
12 | AAAGCTCG | -0.0371
13 | GTAAATGA | 0.208
14 | GGTCTACA | 0.0302
15 | AATTACAT | 0.375
16 | CGGGACAA | -0.129
17 | ACATGAAA | -0.00331
18 | CATATGGC | 0.0838
19 | CAGATGGC | 0.0972
20 | GGTCACTA | 0.0129
21 | ATTTGAGG | -0.0685
22 | GTTGGTGA | 0.143
23 | CAGGGAAC | -0.0438
24 | AATACGCT | 0.186
25 | AATTCAGT | 0.0335

Row | Sequence | PBM E-score
26 | AAGAACCA | 0.0903
27 | AAATGTGC | -0.0126
28 | GGCTCCGA | -0.311
29 | TGCGACCA | 0.0795
30 | CGTGCAGA | 0.0811
31 | CCGTGTGA | -0.0471
32 | AATTAAGG | -0.0906
33 | CATTCGAG | 0.0237
34 | TCTCGGAA | 0.0601
35 | AGCCAAAG | -0.243
36 | AGCGTGCG | 0.00059
37 | CCATATAA | 0.0576
38 | CCGCCCTA | -0.125
39 | AATACGAA | 0.324
40 | GTAGAAGA | -0.131
41 | CATTTAGC | 0.00024
42 | CACAACCC | -0.0859
43 | GAAGAGAC | 0.0544
44 | AACAGCTA | -0.0803
45 | CACATAAG | 0.147
46 | GCAAAGGC | -0.212
47 | ATTAGAAA | 0.176
48 | CACCGGGA | -0.25
49 | AGTATACT | -0.0304
50 | AGCCAACT | -0.128

Row | Sequence | PBM E-score
51 | GAGCGTAA | 0.218
52 | ACGCCGAT | -0.0314
53 | GGAAGACC | -0.407
54 | AACTGATT | 0.0438
55 | GACGAGTC | 0.0596
56 | CCGTTACG | 0.354
57 | AGCGTAAC | 0.266
58 | AAAGTTGG | 0.0645
59 | AAAATGAT | 0.246
60 | TAATGATA | 0.354
61 | GGTGCCAC | -0.146
62 | CGCTGCGA | -0.0517
63 | CTTTCCCA | -0.154
64 | ACGCTCTA | -0.0609
65 | CTCCGTCA | 0.134
66 | AGTGGGTC | -0.183
67 | AGCGCAAG | -0.154
68 | CCTGGCCC | -0.327
69 | CTCAATCA | 0.0356
70 | AGGTTGCC | -0.248
71 | AATCTGCT | 0.0911
72 | AGGCACCT | -0.325
73 | CTAAGTAA | 0.0516
74 | ACGTAACG | 0.469
75 | GACCGTGA | -0.117

Row | Sequence | PBM E-score
76 | AAAGCAAA | 0.128
77 | CACCCATC | -0.0712
78 | AAACAGGT | -0.126
79 | CAATTAAG | 0.0356
80 | CTGTGGCC | -0.196
81 | AGCTGTTC | -0.196
82 | AAGTTCAA | -0.0679
83 | AATCTCCC | -0.0971
84 | GAGCCAAA | -0.187
85 | TCAACTCA | 0.068
86 | AATCAGGT | 0.113
87 | AGCTACCA | -0.115
88 | GATTTGCC | -0.0198
89 | CTATAAAG | 0.0758
90 | CCCTTTGA | -0.306
91 | AAACCTAG | -0.0586
92 | GCAGCCCA | -0.109
93 | ATATAACC | -0.0412
94 | GCCGCACA | -0.172
95 | AGTTTGGA | 0.108
96 | AAAATATA | 0.177
97 | ATGCAAGG | -0.304
98 | GCCAGGAC | -0.156
99 | TAGGGACA | -0.256
100 | GGAAGAAA | -0.113

Row | Sequence | PBM E-score
101 | AAGAAGGG | -0.151
102 | GAAGCGCA | -0.172
103 | GCCTCTAC | -0.189
104 | GGTAATAC | 0.178
105 | ATAAGTTA | 0.201
106 | CCAGCAGC | -0.227
107 | AGGGTCAA | -0.0744
108 | ACCGATAA | 0.0085
109 | AGCCCTTA | 0.0228
110 | GTCGTAAC | 0.267
111 | CTGTAGTC | -0.165
112 | ACTAGCAG | -0.137
113 | AGCTCTAC | -0.106
114 | GAATTCCC | -0.162
115 | ATACTAAG | -0.00391
116 | CCTTGCCA | -0.197
117 | ATGCTGCC | -0.0786
118 | CCGAGAAA | 0.0233
119 | CTCAGTCC | 0.0298
120 | CAACCATA | 0.134
121 | CGCGTGCA | 0.0852
122 | CGAATCAA | 0.209
123 | CCGTGTAG | -0.181
124 | GCGTAAGC | 0.294
125 | CAGCTATA | -0.116

Row | Sequence | PBM E-score
126 | ATGCATAG | 0.00265
127 | CGCTAAGA | 0.0374
128 | GGGAGATA | -0.163
129 | TCATCGAA | 0.221
130 | AGTATGAT | 0.286
131 | CCGATCGC | -0.0636
132 | AGAGAATC | 0.0604
133 | CGAACACA | 0.00171
134 | GGCGAGCA | -0.182
135 | CCGGTGAG | -0.236
136 | GTCTAAAA | -0.0295
137 | CGCGGTTA | -0.0722
138 | ACGTTTTG | 0.393
139 | GGATTGCA | -0.193
140 | AAAGGTGA | -0.09
141 | TACATACA | 0.281
142 | GATGATAC | 0.186
143 | ATAAACGG | 0.0318
144 | AGAAAAGG | -0.169
145 | GCTAATAA | 0.00644
146 | CACCCCTG | -0.201
147 | ACCGTAGG | -0.28
148 | GCCCGCGC | -0.176
149 | AATCGTCA | 0.423
150 | CAGGCAGG | -0.00745

Row | Sequence | PBM E-score
151 | AATCGTGA | 0.0972
152 | CCTATCCG | -0.128
153 | CGCGTTAA | 0.0132
154 | CGGCGACG | 0.0694
155 | CCTGTACG | 0.117
156 | AGTGTCGG | -0.263
157 | CACGTCGG | 0.183
158 | CAATCGGA | -0.124
159 | GACGTATA | 0.453
160 | ACGTCAGT | 0.469
161 | CACGCCAA | 0.119
162 | ATAAAAGC | 0.0222
163 | GATGAGGC | -0.17
164 | AGTGGTTC | -0.08
165 | TTACCAAA | 0.158
166 | CACCGGTA | -0.18
167 | TATTCGAA | 0.0721
168 | CAGCTGTA | -0.256
169 | GTCAACAC | 0.142
170 | ACGGCTCG | -0.0111
171 | CAGAAAAC | 0.234
172 | CTAGTCCC | -0.0899
